In PubChem BioAssay AID360 (National Center for Advancing Translational Sciences (NCATS), 2006):
Out of some 48,000 compounds screened, about 550 (1.1%) were called active. About 4% were inconclusive and are not listed. Rule as the data show it: active = potency below about 15 µM; inconclusive = mostly about 16 µM to 33 µM; inactive = weaker than that. The list shows a part of the results.

Target: Lysosomal acid glucosylceramidase (Homo sapiens) (UniProt P04062)
Experiment: Glucocerebrosidase;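 also: the screen sought inhibitors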
Settings: purified enzyme, resorufin glucoside fluorescence (screen aimed at inhibitors), 20 min
Description: NCGC Assay Overview: Beta-glucocerebrosidase catalyzes the hydrolysis of beta-glucocerebroside to glucose and ceramide. The inherited deficiency of beta-glucocerebrosidase results in Gaucher disease, which is characterized by a wide variety of symptoms including hepatosplenomegaly, anemia, thrombocytopenia, bony lesions and bone marrow infiltration with characteristic storage cells, known as Gaucher cells. There are also forms of the disorder affecting the central nervous system. Patients with the same genotypes can manifest with diverse clinical presentations and it is believed that improper folding and trafficking of beta-glucocerbrosidase may contribute to the phenotypes observed. Low molecular weight molecules, acting as chaperones, may potentially restore trafficking of misfolded beta-glucocerebrosidase from the endoplasmic reticulum to the lysosomes, thereby enhancing functional lysosomal beta-glucocerebrosidase activity. Using normal beta-glucocerebrosidase, an assay was developed to screen for small molecule inhibitors that could potentially act as molecular chaperones on the mutant forms [developed with NIH investigator Dr. Ellen Sidransky's laboratory]. Two pro-fluorescent substrates were chosen for two screens against a small molecule library. One beta-glucocerebrosidase assay used Resorufin beta-D-Glucopyranoside (Marker Gene Technology Inc.), generating a red fluorescent product. The second assay used Fluorescein di-beta-D-Glucopyranoside, generating a blue fluorescent product. […] The IC50 values of Conduritol B Epoxide, a known glucocerebrosidase inhibitor, were determined to be 87.5 uM and 117 uM, respectively. The use of two difference pro-fluorescent substrates in the screens helped to eliminate false positives. All compounds were screened in a titration series resulting in AC50s (e.g., IC50s or EC50s).
NCGC Assay Protocol Summary: Both enzyme and substrate were diluted in buffer composed of 50mM citric acid/KH2PO4, 10mM sodium taurocholate and 0.01% tween-20 at pH 5.9. The final concentration of the enzyme was 0.2 nM in both assays. The compound library was titrated in 7 to 15 concentrations for the primary screens with a final concentration ranging from 0.6 nM to 50 uM. This particular assay protocol is for the "red" substrate, and it was performed in 1536-well plate format as follows: Red fluorescence substrate assay: 2 uL enzyme 23 nL compound 1 uL substrate (final concentration of 30 uM) Incubate at room temperature (RT) for 20 minutes Read the plate in Viewlux plate reader (Ex=548(7) and Em=600(10)).
Potency is read from the fitted curve at half-maximal effect.

Sequence of UniProt P04062 (P04062 whole entry, looked up): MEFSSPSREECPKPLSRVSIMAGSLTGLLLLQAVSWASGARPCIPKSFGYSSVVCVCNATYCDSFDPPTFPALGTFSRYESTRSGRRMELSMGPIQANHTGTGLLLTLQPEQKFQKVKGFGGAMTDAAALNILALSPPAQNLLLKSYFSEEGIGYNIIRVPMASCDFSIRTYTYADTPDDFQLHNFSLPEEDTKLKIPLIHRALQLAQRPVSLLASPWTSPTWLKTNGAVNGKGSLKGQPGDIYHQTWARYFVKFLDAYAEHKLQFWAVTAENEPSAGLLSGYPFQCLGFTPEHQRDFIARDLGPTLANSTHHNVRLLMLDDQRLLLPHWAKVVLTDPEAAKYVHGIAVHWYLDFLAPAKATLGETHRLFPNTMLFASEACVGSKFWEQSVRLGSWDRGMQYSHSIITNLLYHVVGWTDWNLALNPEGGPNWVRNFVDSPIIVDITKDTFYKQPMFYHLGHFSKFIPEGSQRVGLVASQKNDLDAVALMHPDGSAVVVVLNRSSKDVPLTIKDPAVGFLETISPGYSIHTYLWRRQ

Potency, inactive:
CCOc1cc(C2C(C#N)=C(N)Oc3n[nH]c(C)c32)ccc1OCCN1CCOCC1 (stereo unspecified) > 76.9 µM
CCn1c(Cc2ccccc2)nnc1SCC(=O)Nc1ccccc1 > 76.9 µM
Cc1cccc(N2CCCn3c2nc2c3c(=O)n(CCN3CCOCC3)c(=O)n2C)c1 > 76.9 µM
CSc1ccc(S(=O)(=O)NCc2ccccc2Cl)cc1 > 76.9 µM
COc1ccccc1NC(=O)N1CCC(C(=O)c2ccc(F)cc2)CC1 > 76.9 µM
c1ccc(-n2c(-c3ccncc3)nnc2-c2cccs2)cc1 > 76.9 µM
COc1cccc(NS(=O)(=O)c2ccc3c(c2)n(C)c(=O)c(=O)n3C)c1 > 76.9 µM
COc1cccc(Oc2c(C)oc3c(CN4CCOCC4)c(O)ccc3c2=O)c1 > 76.9 µM
C=CCn1c(CC(=O)Nc2cccc(OC)c2)nnc1SCC(=O)NC1CCCCC1 > 76.9 µM
Cc1ccc(C(=O)CC2(O)C(=O)N(CN3CCOCC3)c3ccccc32)cc1 (stereo unspecified) > 76.9 µM
COc1cc(C(=O)OC(C)CN2CCN(C)CC2)cc(OC)c1OC (stereo unspecified) > 76.9 µM
CN(C)C(=O)c1ccc(NC(=O)c2cncc(Br)c2)cc1 > 76.9 µM
COc1cccc(NC(=O)CN(c2ccc(C)cc2)S(=O)(=O)c2c(C)nn(C)c2C)c1 > 76.9 µM
Cn1c(COc2ccc(Cl)cc2)nnc1SCC(=O)NC1CCCCC1 > 76.9 µM
COc1ccc(C)cc1S(=O)(=O)N(C)CC(=O)NCc1ccco1 > 76.9 µM
COc1ccc(C2c3c(oc4ccc(C)cc4c3=O)C(=O)N2c2cc(C)ccn2)cc1OC (stereo unspecified) > 76.9 µM
Cn1c(=O)oc2cc(S(=O)(=O)N3CCC(C(=O)Nc4ccc(OC(F)(F)F)cc4)CC3)ccc21 > 76.9 µM
O=C(CN1CCN(c2ccc(F)cc2)CC1)NCC1CCCO1 (stereo unspecified) > 76.9 µM
O=C(O)c1cccc(N2C(=O)c3cccnc3C2=O)c1 > 76.9 µM
O=C(CC1C(=O)NCCN1C(=O)Nc1ccccc1)Nc1cccc(C(F)(F)F)c1 (stereo unspecified) > 76.9 µM
CCc1cccc2c(C#N)cn(CC(=O)NCc3ccco3)c12 > 76.9 µM
Cc1ccc(SC/C(O)=C(\C#N)c2nc3ccccc3n2C)cc1 > 76.9 µM
CC(NC(=O)c1cccs1)C(c1cccs1)N1CCN(Cc2ccccc2)CC1 (stereo unspecified) > 76.9 µM
C[N+](C)(C)CCNC(=O)c1c(O)c2c([nH]c1=O)CCCC2 > 76.9 µM
COc1ccc2oc(=O)cc(C)c2c1 > 76.9 µM
CCCCn1c(N)c(N(CCC(C)C)C(=O)CSc2nnc3ccccn23)c(=O)[nH]c1=O > 76.9 µM
Cc1ccc(-c2noc(CCC(=O)N3CCCC3)n2)cc1 > 76.9 µM
O=C(c1ccco1)N1CCN(c2ncnc3scc(-c4cccs4)c23)CC1 > 76.9 µM
O=c1[nH]c(CN2CCN(C/C=C/c3ccccc3)CC2)nc2cc(Cl)ccc12 > 76.9 µM
O=C(CCN1CCN(c2ccccn2)CC1)Nc1ccc(F)cc1 > 76.9 µM
CCCn1nc(C(=O)NCCN2CCOCC2)c2ccccc2c1=O
Cn1cnnc1SCc1ccccc1Br > 76.9 µM
Cn1c(=O)c2c(nc(NCCNC(=O)c3ccco3)n2Cc2ccccc2Cl)n(C)c1=O > 76.9 µM
Cc1cccc2cc3c(NC(=O)CC(C)C)nn(C)c3nc12 > 76.9 µM
CN1CCN(Cc2nc3c(c(=O)n(C)c(=O)n3C)n2CCCc2ccccc2)CC1 > 76.9 µM
O=C(Cc1c(F)cccc1Cl)N1CCN(C(=O)c2ccco2)CC1 > 76.9 µM
Cc1nc(-c2ccc(C(=O)O)cc2)cs1 > 76.9 µM
O=C(COc1cccc(-n2cnnn2)c1)NCCC1=CCCCC1 > 76.9 µM
O=c1cnnc(SCCc2ccccc2)[nH]1 > 76.9 µM
CCCn1nnc(NC(=O)c2ccc(Br)cc2)n1 > 76.9 µM
CCC(C)NC(=O)C1CCN(S(=O)(=O)c2cccnc2)CC1 (stereo unspecified) > 76.9 µM
CN(Cc1ccccc1)Cc1nc2c(c(=O)n(C)c(=O)n2C)n1Cc1ccc(F)cc1 > 76.9 µM
CSc1ncccc1C(=O)OCn1nnc2ccccc2c1=O > 76.9 µM
COc1ccc(O)c(-c2[nH]ncc2C(=O)c2ccccc2C)c1 > 76.9 µM
Cc1cc(C)n(-c2nc3ccccc3n3cnnc23)n1 > 76.9 µM
CCCCn1c(CN(C)Cc2ccccc2)nc2c1c(=O)n(C)c(=O)n2C > 76.9 µM
